Laboratory results taken from PubChem BioAssay AID180 (DTP/NCI, 2004).
The source holds more than one record for some entries. Only these are listed. The source may hold further records. Values that stand side by side repeat one measurement across runs, samples, wells, individuals or studies. Brackets with × give the number of equal values in this list.

System: BDF1 mice, Adenocarcinoma 755 s.c., tumor weight T/C
Test: NCI In Vivo Anticancer Drug Screen. Data for tumor model Adenocarcinoma 755 (subcutaneous) in B6D2F1 (BDF1) mice
Conditions: endpoint: mean tumor weight, higher = larger tumour
Experimental: The antitumor activity of compounds was measured in mice bearing transplantable tumors. Survival or tumor size were measured and the results are expressed as the measurement made in the treated group (T) divided by the measurement made in the vehicle treated control group (C). The tumor model used in this assay is Adenocarcinoma 755 (subcutaneous) in B6D2F1 (BDF1) mice

[1] = dose: 60.0 mg/kg/injection, schedule: Q01DX011 (ip), vehicle: methylcellulose (MC)
[2] = dose: 200.0 mg/kg/injection, schedule: Q01DX011 (ip), vehicle: other
[3] = dose: 3.0 mg/kg/injection, schedule: Q01DX011 (ip), vehicle: carboxymethylcellulose (CMC)

CN1CCC(CN2c3ccccc3Sc3ccccc32)CC1
T/C (dose: 7.0 mg/kg/injection, schedule: Q01DX011 (ip), vehicle: methylcellulose (MC)): 66 % of control and 96 % of control | T/C (dose: 15.0 mg/kg/injection, schedule: Q01DX011 (ip), vehicle: methylcellulose (MC)): 57 % of control and 111 % of control | T/C (dose: 30.0 mg/kg/injection, schedule: Q01DX011 (ip), vehicle: methylcellulose (MC)): 27 % of control, 52 % of control, 83 % of control | T/C [1]: 27 % of control, 36 % of control, 66 % of control

Nc1ncnc2c1cnn2Cc1ccc(Cl)cc1
T/C (dose: 19.0 mg/kg/injection, schedule: Q01DX011 (ip), vehicle: carboxymethylcellulose (CMC)): 26 % of control and 91 % of control | T/C (dose: 37.5 mg/kg/injection, schedule: Q01DX011 (ip), vehicle: carboxymethylcellulose (CMC)): 7 % of control and 74 % of control

S=P(N1CC1)(N1CC1)N1CC1
T/C (dose: 0.73 mg/kg/injection, schedule: Q01DX011 (ip), vehicle: carboxymethylcellulose (CMC)): 80 % of control and 123 % of control | T/C (dose: 0.96 mg/kg/injection, schedule: Q01DX011 (ip), vehicle: carboxymethylcellulose (CMC)): 52 % of control and 82 % of control | T/C (dose: 1.2 mg/kg/injection, schedule: Q01DX011 (ip), vehicle: carboxymethylcellulose (CMC)): 23 % of control, 79 % of control, 90 % of control

N#CCCn1cnc2c(Cl)ncnc21
T/C [2]: 53 % of control and 91 % of control

C[C@]12CCC(=O)C=C1CC[C@@H]1[C@@H]2[C@@H](O)C[C@@]2(C)[C@H]1CC[C@]2(O)C(=O)CF
T/C (dose: 25.0 mg/kg/injection, schedule: Q01DX011 (sc), vehicle: steriod suspending solution): 20 % of control and 46 % of control

ClCCN(CCCl)c1ccc(/C=C\c2ccnc3ccccc23)cc1
T/C (dose: 60.0 mg/kg/injection, schedule: Q01DX011 (ip), vehicle: carboxymethylcellulose (CMC)): 28 % of control and 77 % of control

CCC(=O)NC
T/C (dose: 1250.0 mg/kg/injection, schedule: Q01DX011 (ip), vehicle: other): 1 % of control and 63 % of control

c1ccc2c(c1)ccc1cc3c(ccc4ccccc43)cc12
T/C (dose: 50.0 mg/kg/injection, schedule: Q01DX011 (ip), vehicle: methylcellulose (MC)): 21 % of control and 53 % of control

O=C1C=CC(=O)O1 (tested in a mixture with another compound)
T/C (dose: 45.0 mg/kg/injection, schedule: Q01DX011 (ip), vehicle: carboxymethylcellulose (CMC)): 13 % of control and 58 % of control

CC1CN1P(=O)(N1CCCCC1)N1CC1C (configuration not stated)
T/C (dose: 12.0 mg/kg/injection, schedule: Q01DX011 (ip), vehicle: saline): 18 % of control, 59 % of control, 88 % of control | T/C (dose: 24.0 mg/kg/injection, schedule: Q01DX011 (ip), vehicle: saline): 3 % of control, 10 % of control, 42 % of control

Nc1nc2n[nH]nc2c(=O)[nH]1
T/C (dose: 43.36 mg/kg/injection, schedule: Q01DX011 (ip), vehicle: carboxymethylcellulose (CMC)): 29 % of control and 89 % of control | T/C (dose: 54.2 mg/kg/injection, schedule: Q01DX011 (ip), vehicle: carboxymethylcellulose (CMC)): 10 % of control, 40 % of control, 80 % of control | T/C (dose: 72.26 mg/kg/injection, schedule: Q01DX011 (ip), vehicle: carboxymethylcellulose (CMC)): 5 % of control and 51 % of control

CCC1CN1CC1CO1 (configuration not stated)
T/C (dose: 20.0 mg/kg/injection, schedule: Q01DX011 (ip), vehicle: saline): 28 % of control and 81 % of control | T/C (dose: 40.0 mg/kg/injection, schedule: Q01DX011 (ip), vehicle: saline): 14 % of control and 73 % of control

CCN(CC)c1ccc(/C=C/c2ccnc3ccccc23)cc1
T/C (dose: 10.0 mg/kg/injection, schedule: Q01DX011 (ip), vehicle: other): 65 % of control and 113 % of control

CNc1nc(N)nc(Nc2ccc(I)cc2)c1N=O
T/C (dose: 50.0 mg/kg/injection, schedule: Q01DX011 (ip), vehicle: carboxymethylcellulose (CMC)): 27 % of control, 37 % of control, 111 % of control | T/C (dose: 400.0 mg/kg/injection, schedule: Q01DX011 (ip), vehicle: carboxymethylcellulose (CMC)): 19 % of control and 55 % of control

CCCC(=O)OCC1OC(n2cnc3c(=S)nc(N)[nH]c32)C(OC(=O)CCC)C1OC(=O)CCC (configuration not stated)
T/C (dose: 0.88 mg/kg/injection, schedule: Q01DX011 (ip), vehicle: saline): 28 % of control and 67 % of control | T/C [3]: 10 % of control and 72 % of control

CC(=O)OCC(=O)[C@@]1(O)CC[C@H]2[C@@H]3CCC4=CC(=O)C=C[C@]4(C)[C@H]3[C@@H](O)C[C@@]21C
T/C (dose: 10.0 mg/kg/injection, schedule: Q01DX011 (sc), vehicle: steriod suspending solution): 34 % of control and 85 % of control

Nc1nc2ncc(CNc3ccc(C(=O)NC(CCC(=O)O)C(=O)O)cc3)nc2c(=O)[nH]1 (configuration not stated)
T/C (dose: 8.69 mg/kg/injection, schedule: Q01DX011 (ip), vehicle: carboxymethylcellulose (CMC)): 78 % of control and 150 % of control | T/C (dose: 37.06 mg/kg/injection, schedule: Q01DX011 (ip), vehicle: carboxymethylcellulose (CMC)): 47 % of control and 74 % of control

CN(N=O)C(N)=O
T/C (dose: 7.5 mg/kg/injection, schedule: Q01DX011 (ip), vehicle: carboxymethylcellulose (CMC)): 77 % of control and 114 % of control | T/C (dose: 11.25 mg/kg/injection, schedule: Q01DX011 (ip), vehicle: carboxymethylcellulose (CMC)): 53 % of control, 153 % of control, 224 % of control | T/C (dose: 12.65 mg/kg/injection, schedule: Q01DX011 (ip), vehicle: carboxymethylcellulose (CMC)): 62 % of control, 81 % of control, 106 % of control | T/C (dose: 16.86 mg/kg/injection, schedule: Q01DX011 (ip), vehicle: carboxymethylcellulose (CMC)): 45 % of control and 83 % of control | T/C (dose: 25.3 mg/kg/injection, schedule: Q01DX011 (ip), vehicle: carboxymethylcellulose (CMC)): 23 % of control (2×) and 51 % of control

C[C@H](CCC(=O)O)[C@H]1CC[C@H]2[C@@H]3[C@H](O)C[C@@H]4C[C@H](O)CC[C@]4(C)[C@H]3C[C@H](O)[C@]12C (tested in a mixture with another compound)
T/C (dose: 40.0 mg/kg/injection, schedule: Q01DX011 (ip), vehicle: methylcellulose (MC)): 18 % of control, 58 % of control, 76 % of control

CC(=O)OCC(=O)[C@@]1(O)CC[C@H]2[C@@H]3C[C@H](C)C4=CC(=O)C=C[C@]4(C)[C@@]3(F)[C@@H](O)C[C@@]21C
T/C (dose: 0.25 mg/kg/injection, schedule: Q01DX011 (sc), vehicle: steriod suspending solution): 41 % of control and 73 % of control | T/C (dose: 0.5 mg/kg/injection, schedule: Q01DX011 (sc), vehicle: steriod suspending solution): 46 % of control, 72 % of control, 87 % of control | T/C (dose: 1.0 mg/kg/injection, schedule: Q01DX011 (sc), vehicle: steriod suspending solution): 59 % of control and 85 % of control | T/C (dose: 2.0 mg/kg/injection, schedule: Q01DX011 (sc), vehicle: steriod suspending solution): 51 % of control and 81 % of control

Nc1nc(=S)c2ncn(C3OC(COC(=O)c4ccc([N+](=O)[O-])cc4)C(OC(=O)c4ccc([N+](=O)[O-])cc4)C3OC(=O)c3ccc([N+](=O)[O-])cc3)c2[nH]1 (configuration not stated)
T/C (dose: 6.25 mg/kg/injection, schedule: Q01DX011 (ip), vehicle: carboxymethylcellulose (CMC)): 5 % of control and 64 % of control

CC(=O)Nc1c(Cl)c(Cl)c2c(c1Cl)C(=O)c1cc(Cl)ccc1-2
T/C [2]: 48 % of control, 54 % of control, 85 % of control

Cn1c(N)c(N=O)c(=O)n(C)c1=O
T/C (dose: 700.0 mg/kg/injection, schedule: Q01DX011 (oral), vehicle: other): 89 % of control and 121 % of control | T/C (dose: 1400.0 mg/kg/injection, schedule: Q01DX011 (oral), vehicle: other): 86 % of control and 116 % of control

COc1cc2c(c(OC)c1OC)-c1ccc(N)c(=O)cc1[C@@H](NC(C)=O)CC2
T/C (dose: 1.0 mg/kg/injection, schedule: Q01DX011 (ip), vehicle: saline): 42 % of control and 75 % of control

O=C1NC(=O)c2cc([N+](=O)[O-])cc3cccc1c23
T/C (dose: 170.0 mg/kg/injection, schedule: Q01DX011 (ip), vehicle: methylcellulose (MC)): 92 % of control and 168 % of control | T/C (dose: 340.0 mg/kg/injection, schedule: Q01DX011 (ip), vehicle: methylcellulose (MC)): 83 % of control and 114 % of control

C/C(=N\NC(=O)c1ccncc1)c1ccc(Br)cc1
T/C [1]: 28 % of control and 61 % of control

O=S(=O)(F)c1nc(Cl)c2[nH]cnc2n1
T/C (dose: 25.0 mg/kg/injection, schedule: Q01DX011 (ip), vehicle: methylcellulose (MC)): 25 % of control and 113 % of control

CCCOP(=S)(N1CC1C)N1CC1(C)C (configuration not stated)
T/C (dose: 1.5 mg/kg/injection, schedule: Q01DX011 (ip), vehicle: carboxymethylcellulose (CMC)): 31 % of control and 123 % of control | T/C [3]: 33 % of control, 62 % of control, 74 % of control

O=[N+]([O-])c1ccc(Oc2cc(Cl)c(Cl)cc2Cl)c([N+](=O)[O-])c1
T/C (dose: 100.0 mg/kg/injection, schedule: Q01DX011 (ip), vehicle: carboxymethylcellulose (CMC)): 37 % of control and 118 % of control
